Data as given in the supplement of paper PMC11417369.
Some of the results follow.

The sequences below were run on PfSIP2 AP2 domain 1 (GST-tagged) (assay: gcPBM binding intensity (ln(normalized median fluorescence intensity)); higher = stronger DNA binding).
In short: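 Plasmodium falciparum DNA-binding domains carrying a GST tag were expressed in E. coli and applied for 1 h, at about 25 μg on average, to an Agilent 4 × 180k array. The array held primer-extended double-stranded 36-bp intergenic genomic probes together with negative controls, and binding took place in 1× PBS with 1% milk, 0.2 mg/ml BSA, 0.5% salmon testes DNA and 0.03% Triton X-100. An Alexa488 anti-GST antibody detected bound protein, and the array was scanned at 488 nm. Binding intensity is taken as the highest Masliner-normalised natural-log median intensity across replicate spots of either probe orientation.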

| Sequence | gcPBM binding intensity (ln) |
| --- | --- |
| TACATATTTTTTATATGTACATATTTTTTATGTGTA [XGTACX_site442] | 7.17 |
| TTTTATCTCATTCATCAAAATCACCGGAATCATATA [CACACA_negctrl_site357] | 7 |
| TAATAAACAAATTCCAAAATAAATTAAAAGGAAAAT [CACACA_negctrl_site1404] | 6.61 |
| AGGTATATATTACAAGTGCACTGTAAAATTAAAATT | 10.7 |
| ATTTATTTATATTTAGTGCAATACTATTTTTAAATA [GTGCAC_site9886] | 7.57 |
| ATTTTATCATAATAAAGTACAAAGATGCAAATAATA [XGTACX_site2270] | 7.29 |
| GTAATGTCGTCGTTTTGTACATATTTTTATAAAAAG [XGTACX_site2688] | 7.53 |
| AAAAAAAAAAAGAACTCACACATAATAATGTATATG [CACACA_site4974] | 6.69 |
| AAAGGAGACAGAATAAGAATAAATATTATACATATA [XGTACX_negctrl_site412] | 6.76 |
| TATTAGTCGAATGATGTACACACATACAAAACATTT [CACACA_site9331] | 6.96 |
| TTAAAATTATATCTGTGTACATAAATTGTGTAACTA [XGTACX_site1966] | 6.9 |
| ATTTAAAAAAAAATGGCACACATTTTAATTTTATGT [CACACA_site1740] | 6.68 |
| TTTTTAATGATCAGACGTACAGTTATGAAGAAATTT [XGTACX_site6394] | 7.08 |
| TTTTTGTTTCGTTACGCATGCCAAAAGTAAAAATAT [TGCATGCA_site536] | 7.45 |
| TTGTGTCATATATTTTGTAATCAAAATAATTTTATT [TGCATGCA_negctrl_site307] | 6.92 |
| ATAATGTTCCTATGATGTACTTATAATTATCATTTT [XGTACX_site4017] | 7.1 |
| ATTAAAATAATATAAACACACATATACTTTTTTCTA [CACACA_site565] | 6.91 |
| TATTGTTCGTTTAAGGTGCTATTGTTTGCAAAATAT [GTGCAC_site9412] | 8.54 |
| AAGAGGTTATTACATTCACATAACATCAATATACGT [GTGCAC_negctrl_site264] | 6.85 |
| TGGGAAAACCCCAGAAGTACGCTTAATATAAAAAAT [XGTACX_site697] | 6.8 |
| TGTAGTCTGGAGAAAAGTACATAGTATCTGATAACC [XGTACX_site2018] | 7.09 |
| GTGCATATATGATATACACACAATATAATAGTATGT [CACACA_site2460] | 9.12 |

| Sequence | gcPBM binding intensity (ln) |
| --- | --- |
| AAGAGTTTGAAGTTTGCACACTACGTTAAAAATAAA [CACACA_site3939] | 7.16 |
| AATATAATGTAATATACACACATATATTTCTCTTTT [CACACA_site5451] | 6.81 |
| CCACATTTTACAGACACACACAATTTATATTACGGT [CACACA_site1894] | 7.16 |
| AAAAATTTATTTTTAGGTACACAATTGAATTATTTA [XGTACX_site7008] | 6.81 |
| ATAATAAAAAAAAAATGTACATAAATCTAAAATCCT [XGTACX_site5823] | 6.88 |
| ATATATTTAAATAAAAGTACGTAAAGGTATATTTAA [XGTACX_site8088] | 7.05 |
| TGAAGAAAATATTAATGTACATATTATATATATATA [XGTACX_site5497] | 8.58 |
| CCTCCCATTTTTACACGTACACATTTAAAATAGACT [XGTACX_site5640] | 7.67 |
| GTATTTTTTTTAATATGTACATATAAAATATTTTAT [XGTACX_site8329] | 7.45 |
| AATACAATTTATAACACACACACAATAATACATATA [CACACA_site1252] | 7.18 |
| ATATAAGTTTATATATGTACATATATATATTATATA [XGTACX_site2068] | 7.27 |
| AATTCATTTAAAAGTTGTACAAGCTTAATAAAAAAA [XGTACX_site6073] | 7.01 |
| ATATACACATAAAGTAGTACACCTGAAATTTTTTTT [XGTACX_site2951] | 7.21 |
| GAGGATATATTATATGTACACACATATATAACGGAT [CACACA_site8361] | 7.19 |
| CCCATGCATTTTTGCACACACATATATATATAAATA [CACACA_site1430] | 8.4 |
| AATTAAAAATATAAATGTACATATATGTAAAACTTT [XGTACX_site123] | 7.11 |
| AATATATGAATTAGAAGTACAAATAAATATTTATTT [XGTACX_site2062] | 7.04 |
| TTAATCATAAAAGTCACACATAATAAGAAAAAGCTT [CACACA_site4616] | 6.88 |
| ATATAATAGAAGTGTACACACATATTTATGTCTGTA [CACACA_site3121] | 7.14 |
| ATGGATAACAATATGTGTACACATTTATATCTCCAC [XGTACX_site5457] | 7.32 |
| AAGCATGGATATTTTACACACATTTCCACGTAACAA [CACACA_site3141] | 6.77 |
| ATACATTTTTTTTATACGCACACGTCATACTTTTAA [CACACA_site1638] | 7.35 |

| Sequence | gcPBM binding intensity (ln) |
| --- | --- |
| CTAGCAAATACATACACACACACACCGATACATATA [CACACA_site9164] | 7.13 |
| ACAAGACAGATATATACACACATACATACATACATA [CACACA_site7472] | 7.17 |
| ATATTTATTTATATTACACACATGTGCAATTAAACT [CACACA_site6928] | 7.07 |
| TTTCTTAAAAAAAAAAAAAAAAGAAGATAAATAAAA [CACACA_negctrl_site289] | 6.61 |
| TTTAACTTATTCAATGCACACATTTTAATAAGATAT [CACACA_site1967] | 7.16 |
| TCACATGGAAAAAAGTGTACATAATTATGTATAAAT [XGTACX_site2827] | 7.18 |
| TATAAAAAATAAAAAGTTTAATGAATATTTCTTTTA [TGCATGCA_negctrl_site379] | 6.52 |
| ATATATATAACATATACACACGTTCATATATATATA [CACACA_site4416] | 9.1 |
| TAATTTTTATTTTATTTTATTTTTTTTTTTTTTATT [CACACA_negctrl_site1671] | 6.86 |
| TTACAAGTAAAAGGTACACACATTATATATACAAAT [CACACA_site8290] | 7.11 |
| TCCCTAAAAAATGATAAATGGAGACAATTCCGACAA [GTGCAC_negctrl_site209] | 6.83 |
| TTATATATATTTAAATTTTATCTCACATATATATAT [TGCATGCA_negctrl_site275] | 8.52 |
| AAAAAAAAAAAAATCACACACAATATGAATTTATAG [CACACA_site601] | 6.97 |
| AATACAATTTCTAGCACACAAAATATTATTATAATT [CACACA_site3223] | 7.06 |
| TATAGAAGCGTTCACACACACACATACATACCCATA [CACACA_site4915] | 7.13 |
| AAAAAACAATCTCATACACACTAGGGATTAATTATT [CACACA_site5051] | 6.93 |
| ATCATATGTATGCATACACACAAAAAGTTATTTATA [CACACA_site6325] | 7.06 |
| GAAAATCAGTTAAACACACACATAAAAAAAAAAAAA [CACACA_site2875] | 6.89 |
| TCAAGTATTAAAATGGGTACATAAATATGTGTATAT [XGTACX_site5884] | 7.16 |
| CATATAAAAAAATAGACACACATTTTATATAATACG [CACACA_site1896] | 7.01 |
| TATTTTTCTTTTTTTTTTTTTTTTATATTATACGTG [XGTACX_negctrl_site363] | 6.89 |
| CTTTTTAAATTAAAATGTACAGAAAAATATTATTAT [XGTACX_site8760] | 7.04 |

| Sequence | gcPBM binding intensity (ln) |
| --- | --- |
| TATTTGTAAATCGATACACACATATATCTTAATATA [CACACA_site4273] | 6.72 |
| TGGATAATGAATGATGCACACTAAAAATATTCTACA [CACACA_site5912] | 8.55 |
| CGGCACGTGATATATACACACATATAGATATATACA [CACACA_site6408] | 6.96 |
| ATATATACTATATTTTAACACACAAAAAAAAAAAAT [CACACA_site8277] | 7.01 |
| CTCAATATTATTACTACACACAAATTAATATTTTCC [CACACA_site55] | 7.01 |
| CTTTTTTCAAGACACACACACAAGAAAATATAAATA [CACACA_site7455] | 7.17 |
| TGTTAATTGAATGCAATCTGAATTTTTTTACATAAT [CACACA_negctrl_site1002] | 6.67 |
| CACCCACCCAGACACACACACACAAAAAAAAAAAGA [CACACA_site499] | 7.48 |
| TTTTTTTTTTTTAAATGTACTTATCAACTTTTATAT [XGTACX_site4641] | 6.89 |
| ACTTATATTATAAATTGTACAAATATTATATTTGGT [XGTACX_site1424] | 7.02 |
| CACTTACATAATTATTGTACAGATATTATCAAATAA [XGTACX_site567] | 7.41 |
| TTATTTTGTTTATTATGTACACAAAGACATAATAAT [XGTACX_site5648] | 7.35 |
| AATAAAATAATCCAAGTGCATATGTAAAAATACATT [GTGCAC_site9576] | 7.95 |
| AATATATGTAAATGGACACACACATATATATATATA [CACACA_site9220] | 9.61 |
| AAAAAAAAAAGACACACACACACACGCATATACATA [CACACA_site7289] | 7.04 |
| ACGGACAATACGGAAACACACAAGTTATTTTATCAT [CACACA_site7310] | 7.06 |
| TACGTAAAAATAATACGTACATATATTTATAGAAAA [XGTACX_site4959] | 7.13 |
| TTCTGTGTCTAAAAATGTACGGGAATATATAAAAGT [XGTACX_site2090] | 7.74 |
| ACATAATATATATATTAACACACATCCTTTTATGTA [CACACA_site8317] | 7.33 |
| AACCATGTTAACAATGCATGCATCACTATATAAACG [TGCATGCA_site421] | 6.84 |
| ATACATATATATAGGTGTACATATAATATATATATA [XGTACX_site2228] | 8.27 |
| TTTAATTTTACATGAGAAACATATTACAATAAAATA [GTGCAC_negctrl_site606] | 6.89 |
